Reference: article PMC12136788
The list shows a part of the results.

B1: ENSG00000124766:be:win_2801|3pUTR|ENSG00000124766|bound_else_gene|NA|bound_elsewhere_windowed (ssRNA)
RNA: GGGAGUUCUACAGUCCGACGAUCUUUUUCCUUCACCGAUGCUCCAUCCUCGUAUUUCUUUUUCCUUGUAAAUGUAAUCAGAUGCCAUUUUAUAUGUGGACGUAUUUAUACUGGCCAAACAUAUUUUUUCUUUUGUCCCUUUUUCAACAGAGGAUUGAGCAUCA
B2: chr15:43184406:43184511:+|CDS|ENSG00000137842|unk|total|mutant (ssRNA)
RNA: GGGAGUUCUACAGUCCGACGAUCACUGCUGUACAUCUGGCAGGUUUAUUCCUGCUACUUUCUUUAUGCAACAUACGGCACCCCCGCUUUUUUAUUCUCCCCUUUGCGGACCUGGUUGACACUGCUGACACCUGUUCUCAUUCGCAACAGAGGAUUGAGCAUCA
B3: chr16:2586768:2586869:+|CDS|ENSG00000140992|unk|total|mutant (ssRNA)
RNA: GGGAGUUCUACAGUCCGACGAUCCUCCUCACACUCCCUGUCAGCCUCCGACACGGGCCUGCCCCAGAGGUCAGGCAGCAACACCGAGCAGUACAUUCACGAUCUGGACUCGAACUCCUUUGAACUGGACUUACAGUUUUCCGACAACAGAGGAUUGAGCAUCA
B4: ENSG00000083799:stop:overlap|stop_codon|ENSG00000083799|stop_codon|NA|stop_codon (ssRNA)
RNA: GGGAGUUCUACAGUCCGACGAUCCCGAUCGGGAUGGUACUGAAAACGCCUUUCUUCUGCAUGUGGCACAGGGUUCUGGUUUGUAGUGGGACAGUUUGUAGUGGGAUCGCCUGUUCUGAGUGAUAUUUUCUGAGAAAAUCCUUUCAACAGAGGAUUGAGCAUCA
B5: ENSG00000124766:be:win_1751|3pUTR|ENSG00000124766|bound_else_gene|NA|bound_elsewhere_windowed (ssRNA)
RNA: GGGAGUUCUACAGUCCGACGAUCACUUCGAGUUUGCUCCCCUUUGCUUGAAGAGACCCCCUCCCCCUUCCAACGAGCUUCCGGACUUGUCUGCACCCCCAGCAAGAAGGCGAGUUAGUUUUCUAGAGACUUGAAGGAGUCUCCCAACAGAGGAUUGAGCAUCA
B6: chr12:56205560:56205676:-|3pUTR|ENSG00000181852|unk|total|mutant (ssRNA)
RNA: GGGAGUUCUACAGUCCGACGAUCCUCUUGUGGCACAGGCCAUAAUUGUUCCACCGACCCCUCUCCCGCCCUGUGACUGCCGUCCGUUACUUUGAUAAUUUUCUUUGGCCAUUGUUUGUUUAUAUUUCACAAACUCCACCUACUCAACAGAGGAUUGAGCAUCA
B7: chr14:74942539:74942640:-|3pUTR|ENSG00000119630|msi1|total|mutant (ssRNA)
RNA: GGGAGUUCUACAGUCCGACGAUCGUGUAUUUAUUACCGUCACACUCUUCAGUGACUCCUGCUGGUACCUGCCCUCUAUUUAUCCGCCAACUGUUUCCCUGCUGAAUGCCUCGCUCCCUUCAAGACGAGGGGCAGGGAAGGACACAACAGAGGAUUGAGCAUCA
B8: ENSG00000075618:stop:overlap|stop_codon|ENSG00000075618|stop_codon|NA|stop_codon (ssRNA)
RNA: GGGAGUUCUACAGUCCGACGAUCACGCAGGCGUCCUGAAGGCCUCGGCGGAAACCGUGGACCCCGCCUCGCUCUGGGAGUACUAGGGCCGGCCCGUCCUUCCCCGCCCCUGCCCACAUGGCGGCUCCUGCCAACCCUCCCUGCCAACAGAGGAUUGAGCAUCA
B9: chr16:56943551:56943652:+|3pUTR|ENSG00000051108|msi1|total|mutant (ssRNA)
RNA: GGGAGUUCUACAGUCCGACGAUCUGCAUGUCUAUGCUUGAGGAACUUUUCCAAAUGUGUGUGUCUGCAUGUGUGUUUGUACACCGAAGUCACCGAUGCAGAAGUGGUUCUGCUGGUACGAUUUGAUUCCUGUUGGAAUGUUUACAACAGAGGAUUGAGCAUCA
B10: ENSG00000198589:be:win_5901|CDS|ENSG00000198589|bound_else_gene|NA|bound_elsewhere_windowed (ssRNA)
RNA: GGGAGUUCUACAGUCCGACGAUCCUGGGGAAAUUCUGCAGUGAGUCGUCCUCUUGAGUUCUGGCGCCUUGACUACUGGGAAGAUGACUUGCGGCGCCGGCGACGAUUUGUGCGUAACCCUCUAGGAUCGACACAUCCUGAAGCCAACAGAGGAUUGAGCAUCA
B11: chr2:205796339:205796442:+|3pUTR|ENSG00000118257|msi1|total|mutant (ssRNA)
RNA: GGGAGUUCUACAGUCCGACGAUCAAGUCCGCAAGUACUGUGGACAAGAAUGCUUAACCAUGCUGCUUCAGCCUUGAGAGACCCCGGUUCUUACACAUAUGCACACACGCAUACACACAUGCACGCACACACACAUACACACAUCAACAGAGGAUUGAGCAUCA
B12: chr8:42175503:42175666:-|3pUTR|ENSG00000104368|msi1|total|mutant (ssRNA)
RNA: GGGAGUUCUACAGUCCGACGAUCAUGAAAGCAUGUCUCAACCGUAAAAGAUAACAAGAUCUUUCAGGAAAGACGGAUUGCAUCCGAAACCGACAGUAUAUUUACCGUCACAAGAGCCCAGCAGGGCCUCAAAGUUGGGGCAGGCAACAGAGGAUUGAGCAUCA
B13: chr1:150648406:150648517:-|CDS|ENSG00000143457|unk|total|mutant (ssRNA)
RNA: GGGAGUUCUACAGUCCGACGAUCUCAGCGUAUGGACAAGCGAACACCCGCACUCCUGGUGCCCGCCCACUCCUCUGAUGUGCCCGAGAAUGUCUUCUCCUCUCUGACAGAUGACAAGUAUGAUGUGGCAAUGAAUCGAGCCAACAACAGAGGAUUGAGCAUCA
B14: chr3:15255350:15255451:-|3pUTR|ENSG00000131370|msi1|FALSE|unique (ssRNA)
RNA: GGGAGUUCUACAGUCCGACGAUCUGGGGUGGGAAAGGUGAAUGCCAGUGGGGAUGCGGGGGGAUGAGGGUAGGAGGGACUUAUAGAAGGGGAUUUGUGGCUGUGGGGGAGAAGGUUCUACAGCAUAAGCCUUAUCCUGCCAGCCAACAGAGGAUUGAGCAUCA
B15: chr15:42943230:42943331:-|3pUTR|ENSG00000159459|msi1|FALSE|unique (ssRNA)
RNA: GGGAGUUCUACAGUCCGACGAUCAUUAUGCUUAUGAAGUUUACUUACAAACAAGCAACUGAGUCACUUUAUUUUCUUUAGUGUAGUAUGUGAAGGCACUGGUUCAACAGGAUGGCUCCAGAACUGUGUUUUUCUAAUGUUUGGCAACAGAGGAUUGAGCAUCA
B16: chr10:17237356:17237519:+|3pUTR|ENSG00000026025|msi1_unk|total|mutant (ssRNA)
RNA: GGGAGUUCUACAGUCCGACGAUCAGACCGAUUUGGAACCGGAAUAAGCUCCCGUUCUUAACAACCGACACUCCUACAAGAUUCCGAAAAAAGUUUACAACAUAAUCCCGUUUACAGAAAAAUCUUGUGCCCGAAUACUUUUUACAACAGAGGAUUGAGCAUCA
B17: ENSG00000165672:stop:overlap|stop_codon|ENSG00000165672|stop_codon|NA|stop_codon (ssRNA)
RNA: GGGAGUUCUACAGUCCGACGAUCCUCCUACGAUCAAGCCAAGUCCAGCUGCUUCCAAAGAGUACUUUCAGAAGGUAAAUCAGUAGAUCACCCAUGUGUAUCUGCACCUUCUCAACUGAGAGAAGAACCACAGUUGAAACCUGCCAACAGAGGAUUGAGCAUCA
B18: chr5:113567122:113567223:+|CDS|ENSG00000047188|unk|FALSE|bound_elsewhere (ssRNA)
RNA: GGGAGUUCUACAGUCCGACGAUCAAACUCUGAGAAUUGGGCUGUCGUUAAAGCUGCAUUGGUGGCAGGCAUGUAUCCUAAUUUAGUCCACGUGGACAGAGAGAAUCUAGUGUUGACAGGGCCAAAGGAGAAAAAAGUACGAUUCAACAGAGGAUUGAGCAUCA
B19: chr3:185917260:185917361:-|3pUTR|ENSG00000136527|msi1|FALSE|unique (ssRNA)
RNA: GGGAGUUCUACAGUCCGACGAUCUGGCAAAAAGCAACAAUAAACAGUUUGAUUUUUACUUUUCUUUCUAACAUAUCAAUGCUUAGCAGAACUAUUCAGAUUGUCAGUAGUAAAUUUAAAGACAAAUGCCCGUUUUCCUCCAGUCAACAGAGGAUUGAGCAUCA
B20: chr16:88813726:88813828:-|3pUTR|ENSG00000141012|unk|total|mutant (ssRNA)
RNA: GGGAGUUCUACAGUCCGACGAUCUCCCUGGACGCUAAUUAUGAGGGAGGCGUGCCGCUUCUUAUCAUUGUAACUAUGUUAUUCCGAAAUAAAACGGGAGGCAGGUUUGCCUAAUUCCCAGCUUGAUUUUUCUCUUGGCUGAGUCAACAGAGGAUUGAGCAUCA
B21: ENSG00000151012:stop:overlap|stop_codon|ENSG00000151012|stop_codon|NA|stop_codon (ssRNA)
RNA: GGGAGUUCUACAGUCCGACGAUCCUGAAGAAGUAGAAAACCCUGAAAAACCUUUUCUGAGCGGCUACUGGGAAAUUUCUCAUUAGCAGUUCCGAUCUUUGUUGCCCUCUCCUGCUUUGGCUCCAUGAACGGUGGUGUGUUUGCCAACAGAGGAUUGAGCAUCA
B22: chr3:43366700:43366801:-|3pUTR|ENSG00000160746|unk|FALSE|unique (ssRNA)
RNA: GGGAGUUCUACAGUCCGACGAUCACGGUGGCAGGGGGGGUACCCGGGGCAGCAUCGUGGCUCCUGAACCCAGACCCAAUGCUUAGCCAAACGAAGUGGCUCCCAUGUGGCAAGCACCCUUCUCAGUUUCGCAGUGGCUUGGCUCAACAGAGGAUUGAGCAUCA

Target: T1, UNK ZnF1-6 (called full-length) (human, UniProt Q9C0B0 30-357)
T1 sequence: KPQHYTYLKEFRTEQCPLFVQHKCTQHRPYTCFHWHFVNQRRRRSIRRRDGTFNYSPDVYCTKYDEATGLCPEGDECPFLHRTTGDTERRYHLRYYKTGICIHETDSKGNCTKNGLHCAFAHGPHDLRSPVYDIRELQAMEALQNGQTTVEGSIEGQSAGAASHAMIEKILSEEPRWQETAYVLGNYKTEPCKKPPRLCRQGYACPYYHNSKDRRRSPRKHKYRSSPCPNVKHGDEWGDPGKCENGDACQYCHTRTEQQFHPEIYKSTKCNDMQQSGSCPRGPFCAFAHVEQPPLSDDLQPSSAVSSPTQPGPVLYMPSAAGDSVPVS
Assay: nsRBNS (natural sequence RNA bind-n-seq); RBNS binding buffer (assumed for nsRBNS): 25 mM Tris pH 7.5, 150 mM KCl, 3 mM MgCl2, 0.01% Triton X-100, 500 ug/ml BSA, 20 U/ml SUPERase-In, 4 C; UNK is unkempt and MSI1 is Musashi-1; names of the RNAs are library labels; protein concentration not given here; high values mean tight binding

Binder | binding signal [enrichment R]
B1 | 1.64
B2 | 0.743
B3 | 1.02
B4 | 0.474
B5 | 0.925
B6 | 0.873
B7 | 0.536
B8 | 0.757
B9 | 0.307
B10 | 0.478
B11 | 0.661
B12 | 0.626
B13 | 0.636
B14 | 1.15
B15 | 0.808
B16 | 0.21
B17 | 0.751
B18 | 0.812
B19 | 0.751
B20 | 0.451
B21 | 0.811
B22 | 1.11
